Test results: PubChem BioAssay AID662 (National Center for Advancing Translational Sciences (NCATS), 2007)
Values joined by “and” are separate entries in the source; they are usually repeats but may differ in a detail not shown here. Equal entries are not always repeated. Out of some 71,000 compounds screened, about 1,800 (2.5%) were called active. The shares of active, inactive and inconclusive entries below differ from those in the screen. Calls come from the whole dose curve; as a rule, active = well fitted activation curve with a large enough effect in the signal ratio, with a control signal flat (not every such curve was filed as active); inconclusive = small, poorly fitted or top-dose-only effect, or effect the other way, or a change in a side signal; inactive = flat fitted curve, though single readings scatter; the % refers to the signal ratio. Where the call is inconclusive, the potency comes from a doubtful curve fit.

experiment: Cell signaling CRE-BLA (Fsk stim); conditions: CHO CRE-bla reporter (cAMP response element driving beta-lactamase), forskolin EC10, beta-lactamase ratio; activity change, negative = inhibition: at 38.2 µM (top of the series) unless noted; for activity change, negative = inhibition: % of control where 0% means no effect
Method in brief: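 Beta-lactamase reporter under a cAMP responsive element in CHO cells; compounds tested in titration series against EC10 NKH 477, 3 h at 37 °C. Read-out: CCF4 FRET ratio 460nm/530nm (excitation 405nm) giving %Activity, fitted to AC50.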
Potency is the fitted concentration of half-maximal effect; tags give direction and shape of the fitted curve.

| Structure (SMILES) | activity change, negative = inhibition | Potency |
| --- | --- | --- |
| Cc1ccc(Nc2nnc(SCC(=O)NCc3ccco3)s2)cc1 | inactive: -1.68% | – |
| CCC(CC)C(=O)Nc1nnc(SCC(=O)N2CCN(c3ccccc3OC)CC2)s1 | inconclusive: 3.05% | – |
| COc1ccc(-n2nnnc2SCC(=O)NCc2ccco2)cc1OC | – | inconclusive: 12.6 µM [rising, single point] |
| COCCn1c(=N)c(C(=O)NCc2ccco2)cc2c(=O)n3ccccc3nc21 | – | inconclusive: 12.6 µM [rising, partial curve] |
| CCOC(=O)c1c(N)nn(C(=O)C(C)C)c1-c1ccccc1 | – | inconclusive: 10 µM [rising, single point] |
| CC(=O)N[C@@H](C(=O)O)C(C)(C)SN=O | inconclusive: -16.1% | – |
| O=C(c1cccc(F)c1)N1CCC[C@@]2(CCN(c3ncccn3)C2)C1 | inactive: 0.556% | – |
| O=C(O)C1CCN(Cc2cnn(-c3ccccc3)c2-n2cccc2)CC1 | inconclusive: 0.192% | – |
| CCOC(=O)N1CCN(C(=O)CCCn2c(=O)[nH]c3ccccc3c2=O)CC1 | inactive: 7.22% | – |
| Cc1nc2sccn2c1-c1nc(-c2cc3ccccc3o2)cs1 | inconclusive: 28.7% | – |
| O=C(Cc1ccc(Cl)cc1)Nc1ccc(N2CCN(C(=O)c3ccco3)CC2)c(Cl)c1 | inconclusive: -17.1% | – |
| O=C(Cn1cccc1)Nc1ccc(OC(F)(F)F)cc1 | inconclusive: 5.38% | – |
| Cc1noc(C)c1CSc1nc2ccccc2s1 | inactive: 6.59% | – |
| COc1cc(Cn2c(N)c(C#N)c3nc4ccccc4nc32)cc(OC)c1 | – | active: 12.6 µM |
| N#CC(C(=O)NC1CC1)c1nc2ccccc2nc1N1CCCC1 (centres undefined) | – | active: 5.01 µM |
| Cc1ccc(N2CC(C(=O)Nc3nnc(C)s3)CC2=O)cc1 (centres undefined) | inconclusive: -10.5% | – |
| O=C1Cc2c([nH]c3ccc(Br)cc23)-c2ccccc2N1 | – | inconclusive: 10 µM [falling, partial curve] and inconclusive: 6.31 µM [falling, partial curve] |
| Cc1cc(C)n(Cc2ccc(F)cc2)c(=O)c1C#N | inactive: -14.2% | – |
| Cn1c(=O)oc2cc(S(=O)(=O)N3CCC(C(=O)N4CC=C(c5ccccc5)CC4)CC3)ccc21 | inconclusive: -13% | – |
| Cc1cccc(CNc2ncncc2-c2cccc(NS(C)(=O)=O)c2)c1 | inconclusive: 12.6% | – |
| CCOc1ccc(NC(=O)CNC(=O)c2ccc(OC)c(OC)c2)cc1 | inconclusive: 16% | – |
| Cc1noc(C)c1C(=O)Nc1sc(C)c(C)c1C#N | inactive: 24.3% | – |
| COC(=O)c1ccc2c(=O)n(Cc3ccc4c(c3)OCO4)c(SCC(=O)N3CCCC3)nc2c1 | inactive: 10.2% | – |
| CCOC(=O)Nc1oc2ccccc2c(=O)c1CN1CCOCC1 | – | active: 10 µM |
